Measured values: patent US20250177546A1, “ROR1-TARGETED BINDING MOLECULE AND USE THEREOF” (SANYOU BIOPHARMACEUTICALS CO., LTD., priority 2022, published 2025)

Columns and labels:
A549 tumor cells = assay: ADC internalization efficiency by FACS, A549; type: cell-based, human; conditions: relative to control ADC 99961.1-MMAE
MDA-MB-468 tumor = assay: ADC efficacy in mouse model bearing MDA-MB-468 tumor; type: in vivo

B1: B31-H3L3-MMAE (conjugate)
heavy: EVQLVESGGGLVQPGGSLRLSCAASGFTFSRYAMSWVRQAPGKGLEWVASISRGGSTYYADSVKGRFTISRDNSKNTLYLQMNSLRAEDTAVYYCASYFGNYDAMDYWGQGTTVTVSS[human IgG1 constant region not listed]
light: DIQMTQSPSSLSASVGDRVTITCRASQDINNYVSWFQQKPGKAPKSLIYRANRLVSGVPSRFSGSGSGTDFTFTISSLQPEDFATYYCLQFDEFPYTFGGGTKLEIKRTVAAPSVFIFPPSDEQLKSGTASVVCLLNNFYPREAKVQWKVDNALQSGNSQESVTEQDSKDSTYSLSSTLTLSKADYEKHKVYACEVTHQGLSSPVTKSFNRGEC
internalization rate in A549 cells (A549 tumor cells): comparable to that of the control ADC 99961.1-MMA
tumor inhibition effect relative to 99961.1-MMAE (MDA-MB-468 tumor; 5 mg/kg QW*3): superior
mice achieving CR (MDA-MB-468 tumor; 5 mg/kg QW*3, day 25 after administration): 4/6
Tumor growth inhibition (TGI) (MDA-MB-468 tumor; 5 mpk, QW*3, day 35): 38.37%
Tumor growth inhibition (TGI) (MDA-MB-468 tumor; 5 mpk, QW*3, day 38): 52.31%
Tumor growth inhibition (TGI) (MDA-MB-468 tumor; 5 mpk, QW*3, day 42): 74.83%
Tumor growth inhibition (TGI) (MDA-MB-468 tumor; 5 mpk, QW*3, day 45): 84.77%
Complete remission (CR (%)) (MDA-MB-468 tumor; 5 mpk, QW*3, day 49): 2/6
Tumor growth inhibition (TGI) (MDA-MB-468 tumor; 5 mpk, QW*3, day 49): 93.52%
Complete remission (CR (%)) (MDA-MB-468 tumor; 5 mpk, QW*3, day 51): 4/6
Tumor growth inhibition (TGI) (MDA-MB-468 tumor; 5 mpk, QW*3, day 51): 96.83%
Complete remission (CR (%)) (MDA-MB-468 tumor; 5 mpk, QW*3, day 56): 4/6
Tumor growth inhibition (TGI) (MDA-MB-468 tumor; 5 mpk, QW*3, day 56): 98.02%
Tumor growth inhibition relative to 99961.1-MMAE (MDA-MB-468 tumor; 10 mpk QW*3): slightly higher
time at which all mice achieve complete remission (CR) (MDA-MB-468 tumor; 10 mpk QW*3): approximately 18 days after administration
Tumor growth inhibition (TGI) (MDA-MB-468 tumor; 10 mpk, QW*3, day 35): 46.53%
Tumor growth inhibition (TGI) (MDA-MB-468 tumor; 10 mpk, QW*3, day 38): 70.18%
Complete remission (CR (%)) (MDA-MB-468 tumor; 10 mpk, QW*3, day 42): 1/6
Tumor growth inhibition (TGI) (MDA-MB-468 tumor; 10 mpk, QW*3, day 42): 91.94%
Complete remission (CR (%)) (MDA-MB-468 tumor; 10 mpk, QW*3, day 45): 5/6
Tumor growth inhibition (TGI) (MDA-MB-468 tumor; 10 mpk, QW*3, day 45): 99.44%
Complete remission (CR (%)) (MDA-MB-468 tumor; 10 mpk, QW*3, day 49): 6/6
Tumor growth inhibition (TGI) (MDA-MB-468 tumor; 10 mpk, QW*3, day 49): 100%
Complete remission (CR (%)) (MDA-MB-468 tumor; 10 mpk, QW*3, day 51): 6/6
Tumor growth inhibition (TGI) (MDA-MB-468 tumor; 10 mpk, QW*3, day 51): 100%
Complete remission (CR (%)) (MDA-MB-468 tumor; 10 mpk, QW*3, day 56): 6/6
Tumor growth inhibition (TGI) (MDA-MB-468 tumor; 10 mpk, QW*3, day 56): 100%
Tumor growth inhibition (TGI) (MDA-MB-468 tumor; 10 mpk, Single dose, day 35): 29.08%
Tumor growth inhibition (TGI) (MDA-MB-468 tumor; 10 mpk, Single dose, day 38): 50.62%
Tumor growth inhibition (TGI) (MDA-MB-468 tumor; 10 mpk, Single dose, day 42): 84.41%
Complete remission (CR (%)) (MDA-MB-468 tumor; 10 mpk, Single dose, day 45): 1/3
Tumor growth inhibition (TGI) (MDA-MB-468 tumor; 10 mpk, Single dose, day 45): 94.13%
Complete remission (CR (%)) (MDA-MB-468 tumor; 10 mpk, Single dose, day 49): 3/3
Tumor growth inhibition (TGI) (MDA-MB-468 tumor; 10 mpk, Single dose, day 49): 100%
Complete remission (CR (%)) (MDA-MB-468 tumor; 10 mpk, Single dose, day 51): 3/3
Tumor growth inhibition (TGI) (MDA-MB-468 tumor; 10 mpk, Single dose, day 51): 100%
Complete remission (CR (%)) (MDA-MB-468 tumor; 10 mpk, Single dose, day 56): 3/3
Tumor growth inhibition (TGI) (MDA-MB-468 tumor; 10 mpk, Single dose, day 56): 100%
tumor recurrence (MDA-MB-468 tumor; all dose groups of the ADC): not observed
time at which all mice achieve CR (MDA-MB-468 tumor; single dose 10 mg/kg): ≤ 18 days post-administration
tumor inhibition effect relative to 99961.1-MMAE (MDA-MB-468 tumor; single dose 10 mg/kg): superior tumor inhibition effect
